Assay results: PubChem BioAssay AID485294 (National Center for Advancing Translational Sciences (NCATS), 2010)
Among all 370,000 compounds or so, about 150 (0.041%) were called active. This list was built around the results that the source calls inconclusive (neither active nor inactive); the mix of calls is not that of the screen. Calls follow the shape of the dose curve; as a rule, active = well fitted inhibition curve with a large enough effect; inconclusive = small, poorly fitted or top-dose-only effect; inactive = flat fitted curve, though single readings scatter. Potencies of inconclusive entries are left out as doubtful fits.

Target: Beta-lactamase (Escherichia coli (strain K12)) (UniProt P00811)
Experiment: qHTS Inhibitors of AmpC Beta-Lactamase (assay with detergent); also: nearly all actives have a fitted effect of over 25% in size
Details: AmpC hydrolysis of nitrocefin, absorbance 480 nm, 0.01% Triton; series mostly up to 114 µM
Procedure, shortened: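 20 mM phosphate pH 7.0 + 0.01% (detergent screen) or 0.0001% Triton X-100; 5.3 nM AmpC reagent; cpd preinc 15 min RT; nitrocefin (800 uM stock) to start; A480 q20 s × 4 min; Activity was normalised to no-enzyme and no-compound control wells.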
Potency is read from the fitted curve at half-maximal effect; tags tell the direction and shape of the fitted curve.

Chain of UniProt P00811 (P00811 whole entry, looked up): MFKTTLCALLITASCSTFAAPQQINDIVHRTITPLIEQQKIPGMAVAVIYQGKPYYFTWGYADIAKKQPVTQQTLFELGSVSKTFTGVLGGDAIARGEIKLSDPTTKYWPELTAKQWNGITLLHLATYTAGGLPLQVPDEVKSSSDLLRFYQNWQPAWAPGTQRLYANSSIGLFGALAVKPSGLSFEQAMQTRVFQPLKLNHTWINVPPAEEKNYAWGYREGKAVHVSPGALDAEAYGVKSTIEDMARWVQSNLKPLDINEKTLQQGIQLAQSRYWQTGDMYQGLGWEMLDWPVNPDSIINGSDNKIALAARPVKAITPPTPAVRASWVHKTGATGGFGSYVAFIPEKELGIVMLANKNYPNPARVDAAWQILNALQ

SMILES | Potency
COc1ccc(-c2cnnn2-c2ccc(NC(=O)/C=C/c3ccc(OC)c(OC)c3)cc2)cc1 | inconclusive [inhibitor, partial curve, poor fit]
COc1ccc(NC(=O)CN(c2ccc(Cl)cc2)S(C)(=O)=O)cc1OC | inconclusive [inhibitor, full curve]
Cc1ccc(NC(=O)COC(=O)COc2cccc3c2OC(C)(C)C3)cc1S(=O)(=O)N1CCOCC1 | inconclusive [inhibitor, partial curve, poor fit]
CCN(Cc1ccccc1)Cc1nnnn1Cc1ccccc1 | inconclusive [inhibitor, single point]
C=C1/C(=C\C=C2/CCC[C@]3(C)[C@@H]([C@H](C)CCCC(C)(C)O)CC[C@@H]23)C[C@@H](O)C[C@@H]1O | inactive
O=C(Nc1ccc(Br)cc1F)C1CCCN(S(=O)(=O)c2cnc[nH]2)C1 (stereo not drawn) | inconclusive [inhibitor, full curve, poor fit]
CC(=O)c1ccc(NC(=O)CCCN2C(=O)COc3ccc(C)cc32)cc1 | inconclusive [inhibitor, full curve]
CCn1ncc(Cl)c1C(=O)NC(C)c1ccccc1 (stereo not drawn) | inactive
Cc1noc(C)c1CSc1nnc(-c2cccnc2)n1C1CCCCC1C (stereo not drawn) | inconclusive [inhibitor, partial curve, poor fit]
COc1ccccc1N(C)S(=O)(=O)c1ccc(C(=O)N2CCCC(C(F)(F)F)C2)cc1 (stereo not drawn) | inactive
COc1cccc(-c2cn3nc(C)c(C)nc3n2)c1 | inconclusive [inhibitor, full curve, poor fit]
Cc1cc2c(SCC(=O)NC3CCCCC3)ncnc2s1 | inactive
O=C(c1ccco1)N1CCN(c2ncnc3c2nnn3Cc2ccccc2Cl)CC1 | inactive
CC(C)c1ccc(N(CC(=O)NCc2ccc(F)cc2)C(=O)c2csnn2)cc1 | inconclusive [inhibitor, single point]
COc1cc(SC)ccc1C(=O)Nc1ccc2c(c1)CCC2 | inactive
COc1cc(CNC(C)c2ccccc2)cc(Br)c1OCc1ccc(F)cc1 (stereo not drawn) | inconclusive [inhibitor, partial curve]
CC(C)(C)NC(=O)NC(=O)COC(=O)c1cc[n+]([O-])cc1 | inconclusive [inhibitor, partial curve]
CCSc1ccc([C@@H]2[C@@H]3C(=O)N(C)C(=O)[C@@H]3[C@]3(C(=O)OC)CCCCN23)cc1 | inactive
COc1cc(OC)cc(-c2nc(-c3ccccc3)no2)c1 | inconclusive [inhibitor, full curve]
COc1ccc(CN(C(=O)c2nsc(Cl)c2Cl)C(C(=O)NC2CCCCC2)c2ccc(OC)cc2)cc1 (stereo not drawn) | inactive
CCCC(C)NC(=O)COc1ccc(Sc2ccc(OCC(=O)NC(C)CCC)cc2)cc1 (stereo not drawn) | inconclusive [inhibitor, single point]
CC1(C)CCCC2=C1CC1C(=O)N(Cc3cccnc3)C(=O)C1C2 (stereo not drawn) | inconclusive [inhibitor, partial curve, poor fit]
C=CCOc1ccccc1CN1CCC(C(=O)Nc2cccc(-c3ccn[nH]3)c2)CC1 | inactive

SMILES | Potency
CCOCCCNC(=O)CCc1ccc(-n2cnc3cccnc32)cc1 | inconclusive [inhibitor, full curve, poor fit]
CCOC(=O)C1CCN(C(=S)Nc2ccc(CC)cc2)CC1 | inconclusive [inhibitor, single point]
CCOc1ccc(OCC)c(NC(=O)Cn2nc(CC)n3c(cc4sccc43)c2=O)c1 | inactive
Cc1cc(NC(=O)C2CC2)n(-c2nc3ccccc3s2)n1 | inconclusive [inhibitor, partial curve]
CC(C(=O)NCC1CCCO1)N(C(=O)c1snc(C(N)=O)c1N)c1ccccc1 (stereo not drawn) | inconclusive [inhibitor, full curve, poor fit]
Cc1ccc(/C(=C\CN2CCCC2)c2ccccn2)cc1 | inactive
Cc1cc(NS(=O)(=O)c2ccc(NC(=O)c3cnc(Cl)c(Cl)c3)cc2)nc(C)n1 | inconclusive [inhibitor, full curve, poor fit]
CC1CCCCC1NC(=O)c1ccc(CSc2nc3ccncc3[nH]2)cc1 (stereo not drawn) | inconclusive [inhibitor, partial curve, poor fit]
CCOC(=O)c1[nH]c(C)c(C(=O)N2CCN(C(=O)c3ccco3)CC2)c1C | inconclusive [inhibitor, partial curve, poor fit]
Cc1ccc(-n2nnnc2SCC(=O)N2CC(=O)Nc3ccccc32)cc1 | inactive
CC(OC(=O)/C=C/c1ccc2ccccc2n1)C(=O)Nc1ccc(S(N)(=O)=O)cc1 (stereo not drawn) | inconclusive [inhibitor, full curve, poor fit]
CCc1ccc(CN(C)CC(O)COc2cccc3ccccc23)cc1 (stereo not drawn) | inconclusive [inhibitor, partial curve, poor fit]
CCOC(=O)Cc1csc(NC(=O)Nc2cccc(OC)c2)n1 | inactive
NC(=S)N/N=C/c1ccc2ccccc2c1 | inactive
CCOc1cc(C=O)cc(N=Nc2cccc([N+](=O)[O-])c2)c1O | inactive
CCN(c1cccc(C)c1)c1ncnc2nc[nH]c12 | inconclusive [inhibitor, full curve]
CCOc1ccc(-c2ccc(SCC(=O)NC3CCCCC3)nn2)cc1 | inactive
CCOC(=O)C1CCN(C(=O)COc2cc(C)c(Br)cc2C)CC1 | inconclusive [inhibitor, full curve, poor fit]
CCOc1ccccc1NC(=O)C(OC(=O)c1ccc(O)cc1)c1ccccc1 (stereo not drawn) | inconclusive [inhibitor, partial curve]
CCCSC(=S)NC1CCS(=O)(=O)C1 (stereo not drawn) | inconclusive [inhibitor, partial curve, poor fit]
COc1cccc(CSc2nc3n(n2)C(CC(C)C)C(C(=O)Nc2ccccc2OC)=C(C)N3)c1 (stereo not drawn) | inactive
COC(=O)CCC(=O)c1ccc(OC)c(Cl)c1 | inconclusive [inhibitor, partial curve]
O=C(CCC1CCCCC1)NCc1ccncc1 | inconclusive [inhibitor, full curve]

SMILES | Potency
CC(OC(=O)c1cc(=O)[nH]c2ccccc12)c1ccccc1 (stereo not drawn) | inactive
CN1[C@@H]2CC[C@H]1CC(OC1c3ccccc3CCc3ccccc31)C2 (stereo partly drawn) | inconclusive [inhibitor, partial curve]
Cc1ccc(C)c(NC(=O)NNS(=O)(=O)c2ccc(C)c(C)c2)c1 | inconclusive [inhibitor, partial curve, poor fit]
CCN(CC)c1cc2c(cc1F)c(=O)c(S(=O)(=O)c1ccc(OC)cc1)cn2Cc1ccccc1 | inactive
O=C(O)CCc1ccc(-c2ccccc2)n1CC(=O)Nc1cccc(C(F)(F)F)c1 | inconclusive [inhibitor, full curve, poor fit]
Cc1cc(C)cc(NC(=S)NCc2cccn2C)c1 | inconclusive [inhibitor, single point]
O=C(Nc1ccccc1)N(CCCN1CCOCC1)Cc1cccs1 | inconclusive [inhibitor, full curve, poor fit]
COc1ccc(N(CC(=O)Nc2cc(C)on2)S(=O)(=O)c2cc(C)ccc2C)cc1 | inconclusive [inhibitor, partial curve, poor fit]
Cc1ccc(NC(=O)CCN2CCN(CCO)CC2)cc1C | inactive
COc1ccc(CCNC(=O)c2ccc3c(c2)N(Cc2ccc(Cl)cc2)C(=O)c2ccccc2S3)cc1OC | inactive
COc1cc(Br)cc2cc(C(=O)N3CCCCC3C)c(=O)oc12 (stereo not drawn) | inconclusive [inhibitor, single point]
COc1cc(C(=O)NC(=S)Nc2ccccc2[N+](=O)[O-])cc(OC)c1OC | inconclusive [inhibitor, full curve, poor fit]
O=C(NCc1ccco1)C1(c2ccccc2)CCCC1 | inconclusive [inhibitor, partial curve]
O=C1CC(c2c(F)cccc2Cl)C(n2cncn2)C(O)=C1C1NCCc2ccccc21 (stereo not drawn) | inconclusive [inhibitor, partial curve]
CCc1nc(OCCN(C)C)c2oc3ccccc3c2n1 | inconclusive [inhibitor, full curve, poor fit]
CC1CCCC(C)N1C(=O)COc1ccc(F)cc1 (stereo not drawn) | inactive
CCCCn1c(-c2csc(CC)c2)n[nH]c1=S | inconclusive [inhibitor, full curve, poor fit]
Cc1ccc(C(=O)Nc2sc(C)c(C)c2C(=O)c2ccccc2)cc1 | inconclusive [inhibitor, single point]
COc1ccc(C(=O)N2CCN(c3ccc(C)cc3C)CC2)cc1OC | inconclusive [inhibitor, full curve]
O=C(CCc1nnc2n(Cc3ccc(F)cc3)c(=O)c3ccccc3n12)NCCN1CCOCC1 | inconclusive [inhibitor, single point]
COc1ccc2nc(NC(=O)CCc3nc(C4=CCN(C)CC4)no3)sc2c1 | inconclusive [inhibitor, full curve]
Cc1c(C)c2ccc(OCC(=O)NCCCn3ccnc3)c(C)c2oc1=O | inactive
